Assay results from the supplement of paper PMC4604168 (melanoma cell lines).
The other results are listed elsewhere or left out. Many values rest on one well or one pass, so single values are uncertain.

What was measured:
Experiment in all cases: cell count relative to DMSO control; melanoma cells; higher = more viable cells
Details in all cases: library dose: low library concentration; 72 h
MZ2-MEL = tested on: MZ2-MEL
MeWo = tested on: MeWo
RPMI7951 = tested on: RPMI7951
RVH-421 = tested on: RVH-421
SkMel28 = tested on: SkMel28
SkMel2 = tested on: SkMel2
SkMel30 = tested on: SkMel30
SkMel5 = tested on: SkMel5
UACC257 = tested on: UACC257
UACC62 = tested on: UACC62
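Also: cell number obtained by counting DAPI-stained nuclei in high-throughput microscope images with image analysis software, screen run in 1,536-well plates.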

Compound	cell count (MZ2-MEL) [%]	cell count (MeWo) [%]	cell count (RPMI7951) [%]	cell count (RVH-421) [%]	cell count (SkMel28) [%]	cell count (SkMel2) [%]	cell count (SkMel30) [%]	cell count (SkMel5) [%]	cell count (UACC257) [%]	cell count (UACC62) [%]
Nc1nc(F)nc2c1ncn2[C@@H]1O[C@H](CO)[C@@H](O)[C@@H]1O [fludarabine] + Cn1cc(/C=C2\C(=O)Nc3cccnc32)c2ccccc21 [GW441756] (first compound 0.2 µM, partner dose 0.4 µM)	98.3	33.5	110	165	79.1	8.43	27.7	59.5	76	83
CC(=O)O[C@@]12CO[C@@H]1C[C@H](O)[C@@]1(C)C(=O)[C@H](O)C3=C(C)[C@@H](OC(=O)[C@H](O)[C@@H](NC(=O)OC(C)(C)C)c4ccccc4)C[C@@](O)([C@@H](OC(=O)c4ccccc4)[C@H]21)C3(C)C [Docetaxel] + O=C(Nc1ccccc1)c1cc([N+](=O)[O-])ccc1Cl [GW9662] (first compound 0.0001 µM, partner dose 2 µM)	45.8	48.7	35.9	62.7	50.6	40.7	41.6	83	54.9	40.5
Nc1nc(F)nc2c1ncn2[C@@H]1O[C@H](CO)[C@@H](O)[C@@H]1O [fludarabine] + O=c1cc(-c2cccc3c2Sc2ccccc2S3)oc(N2CCOCC2)c1 [KU55933] (first compound 0.2 µM, partner dose 1 µM)	107	36.6	83.3	116	91.5	7.02	22.5	68.3	94.6	85.8
Nc1nc(F)nc2c1ncn2[C@@H]1O[C@H](CO)[C@@H](O)[C@@H]1O [fludarabine] + CC(C)(C)c1cnc(CSc2cnc(NC(=O)C3CCNCC3)s2)o1 [SNS-032] (first compound 0.2 µM, partner dose 0.01 µM)	105	22.4	73.2	91.4	64.4	4.48	30.2	58.1	69.1	88.6
CC(=O)O[C@@]12CO[C@@H]1C[C@H](O)[C@@]1(C)C(=O)[C@H](O)C3=C(C)[C@@H](OC(=O)[C@H](O)[C@@H](NC(=O)OC(C)(C)C)c4ccccc4)C[C@@](O)([C@@H](OC(=O)c4ccccc4)[C@H]21)C3(C)C [Docetaxel] + CCc1ccc(CCOc2ccc(CC3SC(=O)NC3=O)cc2)nc1 [pioglitazone] (first compound 0.0001 µM, partner dose 2 µM)	47.7	58.4	50.5	60.6	63.2	47.8	36.3	66	59.2	44.8
Nc1ccn([C@@H]2O[C@H](CO)[C@@H](O)C2(F)F)c(=O)n1 [gemcitabine] + CC(C)(C)c1cnc(CSc2cnc(NC(=O)C3CCNCC3)s2)o1 [SNS-032] (first compound 0.0004 µM, partner dose 0.01 µM)	92.2	112	77.1	83.9	102	97.2	108	124	114	85.8
CC(=O)O[C@@]12CO[C@@H]1C[C@H](O)[C@@]1(C)C(=O)[C@H](O)C3=C(C)[C@@H](OC(=O)[C@H](O)[C@@H](NC(=O)OC(C)(C)C)c4ccccc4)C[C@@](O)([C@@H](OC(=O)c4ccccc4)[C@H]21)C3(C)C [Docetaxel] + O=C(CCCCCCC(=O)Nc1ccccc1)NO [vorinostat] (first compound 0.0001 µM, partner dose 0.08 µM)	43.7	34.8	36.5	57.4	37.9	36	29.9	91.2	35.9	38.6
Nc1ccn([C@@H]2O[C@H](CO)[C@@H](O)C2(F)F)c(=O)n1 [gemcitabine] + O=C(O)c1ccc(-c2c[nH]c3ncc(-c4ccccc4)cc23)cc1C1CCCC1 [GSK650394] (first compound 0.0004 µM, partner dose 0.16 µM)	97.3	94.7	91.6	106	93.7	90.3	143	107	81.4	110
Nc1nc(F)nc2c1ncn2[C@@H]1O[C@H](CO)[C@@H](O)[C@@H]1O [fludarabine] + O=C(Nc1cccc(Cl)c1)Nc1ncc(CCNc2ncnc3ccsc23)s1 [SNS314] (first compound 0.2 µM, partner dose 0.0008 µM)	105	30.4	71	103	78.6	6.81	16.7	46	83.7	78
Nc1ncn([C@H]2C[C@H](O)[C@@H](CO)O2)c(=O)n1 [decitabine] + Oc1nc(-c2ccc(C(F)(F)F)cc2)nc2c1CSCC2 [XAV939] (first compound 0.1 µM, partner dose 2 µM)	80.5	103	78.3	80.9	92	104	85.1	86.2	104	63.3
CC(=O)O[C@@]12CO[C@@H]1C[C@H](O)[C@@]1(C)C(=O)[C@H](O)C3=C(C)[C@@H](OC(=O)[C@H](O)[C@@H](NC(=O)OC(C)(C)C)c4ccccc4)C[C@@](O)([C@@H](OC(=O)c4ccccc4)[C@H]21)C3(C)C [Docetaxel] + COC(=O)c1sccc1S(=O)(=O)Nc1ccc(Nc2ccccc2)cc1OC [GSK0660] (first compound 0.0001 µM, partner dose 1 µM)	50.5	44.2	41	47.1	46.6	42	47.1	77.4	58.3	48.5
Nc1nc(F)nc2c1ncn2[C@@H]1O[C@H](CO)[C@@H](O)[C@@H]1O [fludarabine] + CO[C@@H]1[C@H](N(C)C(=O)c2ccccc2)C[C@H]2O[C@]1(C)n1c3ccccc3c3c4c(c5c6ccccc6n2c5c31)C(=O)NC4 [Midostaurin] (first compound 0.2 µM, partner dose 0.08 µM)	99.3	21.7	88.8	91.8	66.1	4.11	15	48.6	44.2	95.1
CC(=O)O[C@@]12CO[C@@H]1C[C@H](O)[C@@]1(C)C(=O)[C@H](O)C3=C(C)[C@@H](OC(=O)[C@H](O)[C@@H](NC(=O)OC(C)(C)C)c4ccccc4)C[C@@](O)([C@@H](OC(=O)c4ccccc4)[C@H]21)C3(C)C [Docetaxel] + O=C(Nc1cccc(Cl)c1)Nc1ncc(CCNc2ncnc3ccsc23)s1 [SNS314] (first compound 0.0001 µM, partner dose 0.0008 µM)	47	49.7	43.3	63.3	50.8	47.5	33.6	69	37.1	54.2
Nc1nc(F)nc2c1ncn2[C@@H]1O[C@H](CO)[C@@H](O)[C@@H]1O [fludarabine] + N#Cc1c(O)c2c(-c3ccc(-c4ccccc4O)cc3)csc2[nH]c1=O [A769662] (first compound 0.2 µM, partner dose 2 µM)	104	33.8	101	78.8	56.8	5	14.3	63	79.6	76.9
CC(=O)c1c(C)c2cnc(Nc3ccc(N4CCNCC4)cn3)nc2n(C2CCCC2)c1=O [palbociclib] + CCCCCCCCCCCC1=C(O)C(=O)C=C(O)C1=O [Embelin] (first compound 0.04 µM, partner dose 1.2 µM)	94.1	82.7	72.2	76.4	61.3	90.4	73.5	62.6	75.7	87.5
Nc1nc(F)nc2c1ncn2[C@@H]1O[C@H](CO)[C@@H](O)[C@@H]1O [fludarabine] + CC(C)CCN1c2nc(Nc3cc(F)c(O)c(F)c3)ncc2N(C)C(=O)C1C [BID1870] (first compound 0.2 µM, partner dose 0.2 µM)	109	47	92.6	101	76.4	9.77	19.8	60.1	89.6	74.4
CC(=O)O[C@@]12CO[C@@H]1C[C@H](O)[C@@]1(C)C(=O)[C@H](O)C3=C(C)[C@@H](OC(=O)[C@H](O)[C@@H](NC(=O)OC(C)(C)C)c4ccccc4)C[C@@](O)([C@@H](OC(=O)c4ccccc4)[C@H]21)C3(C)C [Docetaxel] + Cc1cc(N2CCOCC2)cc2[nH]c(-c3c(NC[C@@H](O)c4cccc(Cl)c4)cc[nH]c3=O)nc12 [BMS536924] (first compound 0.0001 µM, partner dose 0.2 µM)	40.1	44.4	42.9	67.7	30.9	49.8	25.5	63.3	42	34.1
CC(=O)c1c(C)c2cnc(Nc3ccc(N4CCNCC4)cn3)nc2n(C2CCCC2)c1=O [palbociclib] + COc1ccc(-c2ccc3c(N4CCOCC4)nc(N4C[C@@H](C)O[C@@H](C)C4)nc3n2)cc1CO [KU0063794] (first compound 0.04 µM, partner dose 0.02 µM)	90.6	69.4	91.6	73.4	69.5	83.2	69.7	90.5	87.3	78.1
CC(=O)O[C@@]12CO[C@@H]1C[C@H](O)[C@@]1(C)C(=O)[C@H](O)C3=C(C)[C@@H](OC(=O)[C@H](O)[C@@H](NC(=O)OC(C)(C)C)c4ccccc4)C[C@@](O)([C@@H](OC(=O)c4ccccc4)[C@H]21)C3(C)C [Docetaxel] + Oc1cc(-c2nc(-c3ccccc3)[nH]c2-c2ccncc2)ccc1Cl [L779450] (first compound 0.0001 µM, partner dose 0.2 µM)	39	46.3	45.4	67.1	50.4	42	28.1	78.5	49.2	37
